# Where “and” joins values, the source holds several entries; their conditions need not be identical. Identical values can stand only once. Among all 48,000 compounds or so, about 1,200 (2.5%) were called active. Inconclusive results (about 2%) are left out.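 Rule for the calls: active = activation of at least 60% and not above a set upper limit (about 1 call in 100 departs from these limits); inconclusive = activation of 40% to 60%, or above that upper limit; inactive = activation under 40%.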 The list shows a part of the results.
# Target: Probable G-protein coupled receptor 32 (Homo sapiens) (UniProt O75388)
# UniProt O75388, sequence (O75388 whole entry, looked up): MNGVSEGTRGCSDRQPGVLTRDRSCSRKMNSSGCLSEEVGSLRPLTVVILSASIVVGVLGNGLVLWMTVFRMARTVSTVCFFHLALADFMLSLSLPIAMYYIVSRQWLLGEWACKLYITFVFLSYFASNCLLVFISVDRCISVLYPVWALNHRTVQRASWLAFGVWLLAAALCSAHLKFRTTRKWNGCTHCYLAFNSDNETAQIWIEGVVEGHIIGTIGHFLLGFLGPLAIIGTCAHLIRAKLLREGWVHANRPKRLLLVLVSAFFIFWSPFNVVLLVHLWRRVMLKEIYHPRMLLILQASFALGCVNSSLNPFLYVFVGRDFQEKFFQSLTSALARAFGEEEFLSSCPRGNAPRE
# Assay: qHTS for Agonists of Human Resolvin D1 Receptor DRV1; note: 0% is about no effect
# Settings: CHO-K1 GPR32 beta-arrestin PathHunter luminescence, 90 min; at 76.9 µM; hits give high values; zero percent set by DMSO-only wells
# In short: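 GPR32 activation in stably transfected CHO-K1 cells, detected as beta-arrestin recruitment by enzyme-fragment complementation. Compound exposure: 90 min, 37 °C.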
row,Structure (SMILES),activation
1,O=C(NCc1ccccc1Cl)C1CCCN(S(=O)(=O)c2cccc3nsnc23)C1 (stereo not given),inactive: -2.83%
2,CCOC(=O)c1c(C)[nH]c(C)c1S(=O)(=O)N1CCC(C(=O)N2CCN(c3ccccc3)CC2)CC1,inactive: 2.4%
3,CCC(=O)N1CCc2cc(Br)cc(S(=O)(=O)N3CCN(c4ccc(C)cc4)C(C)C3)c21 (stereo not given),inactive: -8%
4,Cc1ccccc1-c1noc(-c2cccnc2NCc2ccco2)n1,inactive: -0.988%
5,CCOC(=O)c1c(C)[nH]c(C)c1S(=O)(=O)N1CCC(C(=O)N2CCN(c3cccc(Cl)c3)CC2)CC1,inactive: 36.4%
6,COc1ccc(N2Cc3cccc(C(=O)Nc4cc(C)cc(C)c4)c3C2=O)cc1,inactive: -5.61%
7,CSC1=NC2(CCN(C(=O)NC3CCCCC3)CC2)N=C1c1ccc(C)cc1,inactive: 1.37%
8,O=C(C1COc2ccccc2O1)N1CCN(c2nc3ccc(F)cc3s2)CC1 (stereo not given),inactive: -15.2%
9,Cc1noc(-c2ccc(-c3noc(-c4cccc(F)c4)n3)cc2)n1,inactive: 5.48%
10,NC(=O)C1CCN(C(=O)c2cccc(NC(=O)c3nsc4ccccc34)c2)CC1,inactive: 1.98%
11,Cc1cc(F)ccc1NC(=O)CCS(=O)(=O)c1ccc2c(c1)CC(C)N2C(=O)C1CC1 (stereo not given),inactive: 9.18%
12,CCOc1ccc(CNC(=O)CSc2cc(=O)n(CC)c3ccccc23)cc1,inactive: 46.7%
13,Nc1c(C(=O)Nc2ccc(OC(F)(F)F)cc2)nnn1Cc1ccccc1,inactive: -4.31%
14,CCN(CC)S(=O)(=O)c1nnc(NC(=O)COc2ccccc2F)s1,inactive: -9.29%
15,Cn1c(=O)c2c(nc(SCC(=O)Nc3ccccc3)n2Cc2ccccc2F)n(C)c1=O,inactive: 11.9%
16,Cc1ccc(C#N)c(=O)n1CC(=O)Nc1ccccc1C(F)(F)F,inactive: -6.6%
17,O=C(C1COc2ccccc2O1)N(Cc1cccnc1)c1nc2ccc(Cl)cc2s1 (stereo not given),inactive: -15.5%
18,CCc1cccc(C)c1Nc1c(-c2ccccc2)nc2sccn12,inactive: -15.2%
19,Fc1ccc(CNc2ncnc3onc(-c4ccc(F)cc4)c23)cc1,inactive: 35.1%
20,CCc1c(CN2CCN(c3cccc(C)c3C)CC2)csc1C,inactive: 17.9%
21,O=C(NC1CCCCC1)c1ccc(Cn2c(SCc3ccc(F)cc3)nc3cccnc32)cc1,inactive: -11.7%
22,Cc1ccc2c(c1)-c1onc(C(=O)N3CCN(c4ccc(Cl)cc4)CC3)c1CO2,inactive: 8.71%
23,CCOC(=O)N1CCN(Cc2nc3cc(NC(=O)c4ccccc4[N+](=O)[O-])ccc3n2C(C)C)CC1,inactive: 2.92%
24,Cc1ccc(-n2c3nc(=O)[nH]c(=O)c-3cc3c(C)nn(-c4ccccc4)c32)cc1Cl,inactive: 5.5%
25,CCCNC(=O)C1CCC(Cn2c(=O)c3sccc3n(Cc3ccccc3F)c2=O)CC1 (stereo not given),inactive: -1.14%
26,COCCCn1c(=N)c(C(=O)NCc2ccco2)cc2c(=O)n3ccccc3nc21,inactive: -4.26%
27,Cc1cccc(C)c1NC(=O)NCCc1c[nH]c2ccccc12,inactive: -1.19%
28,COc1ccccc1CNC(=O)CCn1nc(C)c2c(C)n(-c3ccccc3)nc2c1=O,inactive: -6.2%

row,Structure (SMILES),activation
1,CNCCCN1c2ccccc2CCc2ccccc21,inactive: 2.23% and inactive: -0.376%
2,Cc1oc(-c2ccc(Cl)cc2)nc1CS(=O)CC(=O)N1CCN(c2cccc(C(F)(F)F)c2)CC1 (stereo not given),inactive: -0.133%
3,COc1cccc(N2CCN(c3ncnc4c3nc3n4CCCCC3)CC2)c1,inactive: 9.46%
4,CCCCN(CC)C(=O)CSc1nc2n[nH]c(C)c2c(=N)n1-c1cccc(OC)c1,inactive: -19.6%
5,Brc1ccc(-c2nc3ccccn3c2Nc2ccc3c(c2)OCCO3)o1,inactive: -16.4%
6,O=S(=O)(c1ccccc1)c1nnn2c1nc(NCc1ccc(F)cc1)c1sccc12,inactive: 5.57%
7,Nc1ccc(/C=C/c2ccc(N)cc2S(=O)(=O)O)c(S(=O)(=O)O)c1,inactive: -6.59%
8,CCC1CN(C(=O)Nc2cc(C)ccc2OC)c2cc(Cl)ccc2O1 (stereo not given),inactive: -36.5%
9,CCCCC(=O)OCc1cc(=O)n2nc(C3CCCCC3)sc2n1,inactive: -2.65%
10,Cc1cc(C)n(-c2nc3ccccc3nc2Nc2ccc(Cl)c(Cl)c2)n1,inactive: -1.47%
11,COc1ccccc1NCc1cccn1-c1nnc(N2CCCCCC2)s1,inactive: -8.74%
12,COC(=O)c1ccc(NC(=O)CC2Nc3cc(C)c(C)cc3NC2=O)cc1 (stereo not given),inactive: -47.2%
13,Cc1cccc(OCC(=O)Nc2c(C(=O)N3CCN(c4ccccc4F)CC3)oc3ccccc23)c1,inactive: -19.1%
14,CCOc1ccc(S(=O)(=O)Nc2ccc3oc(C)c(C(=O)OC(C)C)c3c2)cc1,active: 87%
15,Cc1cc(C)cc(OCC(=O)NC(Cc2c[nH]c3ccccc23)C(=O)O)c1 (stereo not given),inactive: -0.167%
16,Cc1ccc2onc(CC(=O)Nc3cccc(C(F)(F)F)c3)c2c1,inactive: 13.9%
17,COc1ccc(C2c3c(n(C)c4ccccc34)C(=O)N2CC(=O)Nc2cc(Cl)ccc2C)cc1 (stereo not given),inactive: -15.9%
18,Cc1ccc(NC(=O)N2CCc3cc(S(=O)(=O)N4CCC(C)CC4)ccc32)cc1F,inactive: -11.4%
19,CCOC(=O)c1ccc(N2C(=O)c3[nH]nc(-c4ccc(OC)cc4)c3C2c2ccccc2Cl)cc1 (stereo not given),inactive: -5.64%
20,CCOC(=O)N1CCN(C(=O)CN(c2cccc(Cl)c2)S(=O)(=O)c2ccccc2)CC1,inactive: -7.34%
21,CCCc1cc(=O)n2[nH]c(NC(=O)c3ccccc3Cl)nc2n1,inactive: 8.63%
22,CCCN(C(=O)c1cc2c(=O)oc3ccccc3c2s1)c1cccc(Cl)c1,inactive: 14.3%
23,O=C(Nc1ccccc1)N(Cc1cccs1)c1ccc(F)cc1,inactive: -12.8%
24,CCOC(=O)c1sc(N2C(=O)c3oc4ccc(C)cc4c(=O)c3C2c2ccccc2F)nc1C (stereo not given),inactive: 6.68%
25,COc1cccc(CNC(=O)c2cc(S(=O)(=O)N3CCCCCC3)cn2C)c1,inactive: 31.7%
26,C[n+]1ccccc1/C=N/O,inactive: 6.12%
27,CCOC(=O)CSc1nc2cc3c(cc2c(=O)n1CCCC(=O)NCCc1ccc(OC)c(OC)c1)OCO3,inactive: -13.3%
